In the supplement of paper PMC12645437, “Orthogonal IMiD-Degron Pairs Induce Selective Protein Degradation in Cells” (ACS Chemical Biology, 2025):
Some of the results follow.

B1: Q9UKT9 (peptide)
chain: FMCNICGAIFTQKGNLLRHIKL
B2: Q9UKT9 (peptide)
chain: FFCPICGHWFTQKGNLLRHIKL
B3: Q9UKT9 (peptide)
chain: FSCDVCGARFTQKGNLLRHIKL
B4: Q9UKT9 (peptide)
chain: LKCNQCGFYCTQKGNLLRHIKL
B5: Q9UKT9 (peptide)
chain: FRCEICGHVFTQKGNLLRHIKL
B6: Q9UKT9 (peptide)
chain: FVCNVCGASFTQKGNLLRHIKL
B7: Q9UKT9 (peptide)
chain: FKCPQCGADFTQKGNLLRHIKL
B8: Q9UKT9 (peptide)
chain: FECNQCGHYFTQKGNLLRHIKL
B9: Q9UKT9 (peptide)
chain: FSCPQCGAWFTQKGNLLRHIKL
B10: Q9UKT9 (peptide)
chain: FYCNQCGRYFTQKGNLLRHIKL
B11: Q9UKT9 (peptide)
chain: FFCEQCGAIFTQKGNLLRHIKL
B12: Q9UKT9 (peptide)
chain: LACEICGFECTQKGNLLRHIKL
B13: Q9UKT9 (peptide)
chain: LSCPICGFYCTQKGNLLRHIKL
B14: Q9UKT9 (peptide)
chain: FRCEVCGANFTQKGNLLRHIKL
B15: Q9UKT9 (peptide)
chain: FYCNQCGAYFTQKGNLLRHIKL
B16: Q9UKT9 (peptide)
chain: FRCEQCGAYFTQKGNLLRHIKL
B17: Q9UKT9 (peptide)
chain: FLCPICGHEFTQKGNLLRHIKL
B18: Q9UKT9 (peptide)
chain: FDCPQCGASFTQKGNLLRHIKL
B19: Q9UKT9 (peptide)
chain: FICDQCGAFFTQKGNLLRHIKL
B20: Q9UKT9 (peptide)
chain: FHCNQCGRHFTQKGNLLRHIKL
B21: Q9UKT9 (peptide)
chain: LFCPICGFLCTQKGNLLRHIKL
B22: Q9UKT9 (peptide)
chain: FMCNICGATFTQKGNLLRHIKL
B23: Q9UKT9 (peptide)
chain: FGCPICGRWFTQKGNLLRHIKL
B24: Q9UKT9 (peptide)
chain: LFCEICGFQCTQKGNLLRHIKL
B25: Q9UKT9 (peptide)
chain: LWCEICGFSCTQKGNLLRHIKL
B26: Q9UKT9 (peptide)
chain: FLCPICGAMFTQKGNLLRHIKL
B27: Q9UKT9 (peptide)
chain: FTCEICGRDFTQKGNLLRHIKL
B28: Q9UKT9 (peptide)
chain: FFCEICGAMFTQKGNLLRHIKL
B29: Q9UKT9 (peptide)
chain: LICEICGFSCTQKGNLLRHIKL
B30: Q9UKT9 (peptide)
chain: FVCNQCGHSFTQKGNLLRHIKL
B31: Q9UKT9 (peptide)
chain: FLCDICGATFTQKGNLLRHIKL
B32: Q9UKT9 (peptide)
chain: FKCEICGAPFTQKGNLLRHIKL
B33: Q9UKT9 (peptide)
chain: FECEVCGADFTQKGNLLRHIKL
B34: Q9UKT9 (peptide)
chain: FQCEVCGARFTQKGNLLRHIKL
B35: Q9UKT9 (peptide)
chain: FKCPICGRLFTQKGNLLRHIKL
B36: Q9UKT9 (peptide)
chain: FNCPICGAWFTQKGNLLRHIKL
B37: Q9UKT9 (peptide)
chain: FMCPVCGAYFTQKGNLLRHIKL
B38: Q9UKT9 (peptide)
chain: FHCPICGRSFTQKGNLLRHIKL
B39: Q9UKT9 (peptide)
chain: FQCPICGAYFTQKGNLLRHIKL
B40: Q9UKT9 (peptide)
chain: FFCDVCGADFTQKGNLLRHIKL
B41: Q9UKT9 (peptide)
chain: FRCPICGHWFTQKGNLLRHIKL
B42: Q9UKT9 (peptide)
chain: LCCNQCGFYCTQKGNLLRHIKL
B43: Q9UKT9 (peptide)
chain: FLCPVCGAIFTQKGNLLRHIKL
B44: Q9UKT9 (peptide)
chain: FVCEQCGAVFTQKGNLLRHIKL
B45: Q9UKT9 (peptide)
chain: FTCNQCGRQFTQKGNLLRHIKL
B46: Q9UKT9 (peptide)
chain: FCCEQCGAIFTQKGNLLRHIKL
B47: Q9UKT9 (peptide)
chain: FACEICGRDFTQKGNLLRHIKL
B48: Q9UKT9 (peptide)
chain: FWCEICGALFTQKGNLLRHIKL
B49: Q9UKT9 (peptide)
chain: FTCNQCGHQFTQKGNLLRHIKL
B50: Q9UKT9 (peptide)
chain: FICDVCGALFTQKGNLLRHIKL

What follows are sequences tested against no compound (DMSO) (assay: log2 fold change of degron read counts, EGFP-low vs EGFP+ sorted cells; higher = lower degron-EGFP level without compound (poor expression or instability)). Settings: compound: DMSO control; 18 h.
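Further: jurkat cells carrying a lentiviral library of mutant zinc finger degrons fused to EGFP plus mCherry, mCherry+ cells FACS sorted, degron abundance counted by next-generation sequencing.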

Sequence	log2 fold change of degron read counts
B1	1.41
B2	1.55
B3	-0.777
B4	1.25
B5	-0.875
B6	-0.772
B7	-2.12
B8	0.159
B9	-0.546
B10	1.09
B11	-1.25
B12	-1.1
B13	1.52
B14	-1.68
B15	0.75
B16	-1.28
B17	-1.37
B18	-2.2
B19	-0.871
B20	-0.307
B21	2.14
B22	-0.379
B23	0.335
B24	0.0789
B25	1.15

Sequence	log2 fold change of degron read counts
B26	0.238
B27	-2.35
B28	0.00164
B29	-0.104
B30	-1.4
B31	-1.26
B32	-0.875
B33	-2.63
B34	-0.727
B35	-0.109
B36	0.275
B37	0.589
B38	-2
B39	0.359
B40	-1.89
B41	0.775
B42	1.19
B43	0.643
B44	-1.49
B45	-1.51
B46	-0.633
B47	-1.42
B48	0.611
B49	-0.547
B50	-0.335
